Measured values as given in article PMC4336329 (PLoS ONE, 2015).
Among all 310,000 compounds or so, about 2,200 (0.71%) showed an effect of 50% or more. The effect is printed as a negative number. Some of the results follow.

molecular target: human ether-à-go-go-related gene (hERG) potassium channel (human, UniProt Q12809); assay: primary screen, population patch clamp on CHO cells stably expressing hERG
Sequence (Q12809 whole entry, looked up): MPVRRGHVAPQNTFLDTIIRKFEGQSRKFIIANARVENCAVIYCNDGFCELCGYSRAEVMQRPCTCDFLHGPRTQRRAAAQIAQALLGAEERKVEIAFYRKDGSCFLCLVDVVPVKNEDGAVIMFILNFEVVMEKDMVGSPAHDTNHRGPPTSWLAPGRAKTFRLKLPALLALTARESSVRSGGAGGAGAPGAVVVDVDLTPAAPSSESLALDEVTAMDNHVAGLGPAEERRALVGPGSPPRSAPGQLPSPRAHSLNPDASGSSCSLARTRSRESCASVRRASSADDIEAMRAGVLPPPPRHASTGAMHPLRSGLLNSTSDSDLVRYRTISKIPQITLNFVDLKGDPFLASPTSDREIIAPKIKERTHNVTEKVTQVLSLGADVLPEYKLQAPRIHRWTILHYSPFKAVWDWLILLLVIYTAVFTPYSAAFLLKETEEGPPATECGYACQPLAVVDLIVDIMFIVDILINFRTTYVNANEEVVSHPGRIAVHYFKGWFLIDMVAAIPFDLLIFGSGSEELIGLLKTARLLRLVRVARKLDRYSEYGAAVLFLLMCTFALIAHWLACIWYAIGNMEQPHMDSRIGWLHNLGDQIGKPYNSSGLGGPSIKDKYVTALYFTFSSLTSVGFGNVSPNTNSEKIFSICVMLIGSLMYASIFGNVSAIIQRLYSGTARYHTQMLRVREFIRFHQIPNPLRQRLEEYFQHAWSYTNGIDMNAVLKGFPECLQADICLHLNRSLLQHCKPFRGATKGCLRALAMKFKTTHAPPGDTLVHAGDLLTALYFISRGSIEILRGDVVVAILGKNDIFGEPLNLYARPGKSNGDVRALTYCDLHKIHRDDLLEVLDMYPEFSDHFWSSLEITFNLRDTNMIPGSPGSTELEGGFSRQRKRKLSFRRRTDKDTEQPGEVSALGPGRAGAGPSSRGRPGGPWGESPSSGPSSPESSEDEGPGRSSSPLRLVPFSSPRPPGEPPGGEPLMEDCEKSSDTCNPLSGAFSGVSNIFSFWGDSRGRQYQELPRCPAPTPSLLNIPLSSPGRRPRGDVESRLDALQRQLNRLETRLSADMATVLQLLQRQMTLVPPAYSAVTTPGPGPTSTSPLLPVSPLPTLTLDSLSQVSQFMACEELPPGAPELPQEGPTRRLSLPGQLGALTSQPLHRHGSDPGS

Row | SMILES | hERG current change (%, negative = inhibition) at 1uM [%]
1 | Cn1nccc1C(=O)Nc1ccc(S(=O)(=O)N2CCCC2)cc1 | 16.7
2 | Cc1ccc(OCC(=O)Nc2cccc(S(=O)(=O)N3CCOCC3)c2)c([N+](=O)[O-])n1 | 11.9
3 | CC(C(=O)NCC1CCCCC1)N1CCN(S(=O)(=O)/C=C/c2ccccc2)CC1 (stereo not drawn) | 8.03
4 | Cc1c(Cl)cccc1NC(=O)c1ccc(OCC(=O)NCc2ccccc2)cc1 | 11.6
5 | Cc1c(Nc2cc(N3CCCCCC3)c3nonc3c2[N+](=O)[O-])c(=O)n(-c2ccccc2)n1C | 4.47
6 | Cc1cc(Nc2cccc(Cl)c2)c2ccccc2n1 | -15.9
7 | CCCC(=O)OCC[N+](C)(C)C.[Cl-] | 8.49
8 | O=C(Nc1ccc(Cl)cn1)Nc1ccccc1Cl | 11.3
9 | Cl.O=C(O)c1cccc(Nc2nc(C(F)(F)F)nc3ccccc23)c1 | 25.1
10 | CN(CC(=O)Nc1ccccc1Br)C(=O)c1cc([N+](=O)[O-])ccc1N1CCOCC1 | 17.8
11 | CC(C)(C)c1ccc(S(=O)(=O)NCC(=O)Nc2sc3c(c2C(N)=O)CCCC3)cc1 | 11.2
12 | CC(NCc1cccc(OCc2ccccc2)c1)C(O)c1ccccc1.Cl (stereo not drawn) | -1.76
13 | CCOC(=O)Cc1nc2nc(C)cc(C)n2n1 | 2.61
14 | Cc1ccc(OCC(O)CN2CCN(Cc3ccc4c(c3)OCO4)CC2)cc1C.Cl (stereo not drawn) | 5.88
15 | COc1ccc(C(CC(=O)Nc2ncccc2C)N2Cc3ccccc3C2=O)cc1 (stereo not drawn) | 11.3
16 | COc1ccc(Cl)cc1NC(=O)CN(C)C(=O)c1ccc(C)s1 | 3.75
17 | Cc1nc(N2CCCCC2)c2c(C)c(C(=O)Nc3ccccc3C(F)(F)F)sc2n1 | 7.99
18 | CC(=O)NC(=S)NNC(=O)COc1ccc([N+](=O)[O-])cc1 | 14
19 | CC(NC(=O)c1ccc(Cn2cc([N+](=O)[O-])cn2)cc1)c1ccccc1 (stereo not drawn) | 4.26
20 | O=C(NNC(=O)c1cc(Cl)ccc1O)c1cccs1 | 16.2
21 | O=C1NC(=O)C(CC(=O)N(Cc2ccco2)C2(C(=O)NC3CCCCC3)CCCCC2)N1 (stereo not drawn) | 6.32
22 | Cc1ccc(NC(=O)c2ccc(S(=O)(=O)NCc3cccnc3)cc2)cc1C | 1.63
23 | CCC(=O)NNc1ncnc2c1cnn2-c1ccccc1 | 6.46
24 | COc1cccc(C2=NOC(C(=O)N3CCN(C(=O)c4ccco4)CC3)C2)c1 (stereo not drawn) | -16.3
